Experimental data as given in ChEMBL document CHEMBL4888484, “Replenishing the malaria drug discovery pipeline: Screening and hit evaluation of the MMV Hit Generation Library 1 (HGL1) against asexual blood stage Plasmodium falciparum ,using a nano luciferase reporter read-out” (2022).
About 540 (0.36%) of roughly 150,000 compounds showed an effect of 50% or more. This is one part of the list.

What follows are compounds tested on Plasmodium falciparum (assay: Primary screen in NF54 nanoGlo assay, in single point, at 2uM, 72h; a lower Z score goes with more inhibition). Conditions: timepoint 72 hour.
Type: functional, Erythrocyte
`Cc1csc(CN(C)C(=O)Nc2cccc3c2CCC3)n1` was tested, and the “% Inhibition” value was -6% and the Z score was 1.18.
`O=S(=O)(c1cncc(F)c1)N1CCC[C@H]1c1cccc(F)c1` was tested, and the “% Inhibition” value was -6% and the Z score was 1.16.
With `Cc1cc2c(=O)n(CCO[C@@H]3CCCCO3)cnc2cc1F` the “% Inhibition” value was 2% and the Z score was -0.23.
With `O=C(Cn1cccn1)N1CCC(n2c(=O)[nH]c3ccccc3c2=O)CC1` the “% Inhibition” value was -3% and the Z score was 0.61.
For `CCCN1CCC[C@H]1c1nc(Cc2ccccc2)no1`, the “% Inhibition” value was -10% and the Z score was 1.31.
In the case of `CC1CCC2C(CCCN2C(=O)c2cnns2)C1` (stereo unspecified), the “% Inhibition” value is reported as -13% and the Z score is reported as 1.67.
For `Cc1cnc(-n2cnnc2)c(-c2cccc(C(=O)N3CCC4(CCO4)CC3)c2)c1`, the “% Inhibition” value was -4% and the Z score was 0.7.
`COC(=O)c1cnc(NC(=O)[C@@H](C)C2CC2)c(O)c1` was tested, and the “% Inhibition” value was -19% and the Z score was 2.43.
With `COC[C@H]1CC[C@H]1NC(=O)N(C)Cc1ccoc1` the “% Inhibition” value was -1% and the Z score was 0.14.
For `CCNc1ccc(Cl)cc1C(=O)N1CCc2cnccc21`, the “% Inhibition” value was -5% and the Z score was 0.48.
With `COc1ncc(C(=O)N[C@@H](C)c2cnn(-c3ccc(F)cc3F)c2C)cn1` the “% Inhibition” value was -9% and the Z score was 1.42.
With `Cn1ccc([C@@H]2CCCCCN2S(=O)(=O)c2ccc(F)cc2)n1` the “% Inhibition” value was 5% and the Z score was -0.6.
In the case of `COc1ccc(NC(=O)Cn2c(C)ncc(C(=O)NC3CCCC3)c2=O)c(OC)c1`, the “% Inhibition” value is reported as 3% and the Z score is reported as -0.44.
With `O=S(=O)(Cc1ccccc1)N1CC[C@H](Cc2nncn2CC2CC2)C1` the “% Inhibition” value was -12% and the Z score was 2.15.
For `O=C(c1cccc(CC2CCNCC2)c1)N1CCC(c2cccc(O)c2)CC1`, the “% Inhibition” value was -4% and the Z score was 0.5.
With `Cc1nc(C(=O)N(CCO)CC(F)F)c(Br)s1` the “% Inhibition” value was -9% and the Z score was 1.2.
For `Cc1c(F)cccc1S(=O)(=O)N1CCn2c(nn(C)c2=O)C1`, the “% Inhibition” value was -10% and the Z score was 1.19.
With `O=C(NC1CCCC1)[C@H]1CCCN(S(=O)(=O)Cc2ccccc2Cl)C1` the “% Inhibition” value was -14% and the Z score was 1.81.
With `O=C(c1ccc(F)c(F)c1)N1CC2(C[C@H](N3CCCC3)CO2)C1` the “% Inhibition” value was -7% and the Z score was 1.1.
In the case of `CC(C)c1nocc1C(=O)NC1CC(O)c2ccccc21` (stereo unspecified), the “% Inhibition” value is reported as -12% and the Z score is reported as 1.39.
In the case of `CC[C@H](NC(=O)c1cc2ccccc2o1)C(=O)NCCc1c[nH]c2ccccc12`, the “% Inhibition” value is reported as -2% and the Z score is reported as 0.25.
In the case of `O=C(COc1ccccc1)NC[C@H]1CCCN(C(=O)C2CCOCC2)C1`, the “% Inhibition” value is reported as 9% and the Z score is reported as -1.16.
For `CC[C@H]1CC[C@@H](C)N(C(=O)c2cccc(C)n2)C1`, the “% Inhibition” value was -10% and the Z score was 1.2.
In the case of `CN(CN1CC(c2cccc(F)c2)CC1=O)C1CCS(=O)(=O)C1` (stereo unspecified), the “% Inhibition” value is reported as -2% and the Z score is reported as 0.26.
In the case of `CC(=O)Nc1c2n(c3ccccc13)C[C@@](C)(C(=O)NC1CCCCC1)N(C1CCCCCC1)C2=O`, the “% Inhibition” value is reported as -3% and the Z score is reported as 0.33.
`Cc1cccc(C(=O)N2CCCN(C(=O)c3ccc4c(N)ncnc4c3)CC2)c1` was tested, and the “% Inhibition” value was -7% and the Z score was 0.98.
In the case of `O=C(O)C(c1ccsc1)N1CCCC(c2nc(-c3ccc(F)cc3)no2)C1` (stereo unspecified), the “% Inhibition” value is reported as -11% and the Z score is reported as 1.92.
With `Cc1cc(C(=O)Nc2cccc(OCC(F)F)n2)on1` the “% Inhibition” value was -21% and the Z score was 1.79.
For `CN1C[C@@H]2CN(C(=O)[C@H]3C[C@@H]3c3ccccc3)C[C@@H]2C1`, the “% Inhibition” value was 5% and the Z score was -0.63.
In the case of `CCCCC(=O)Nc1cc(Cl)c(OC)cc1OC`, the “% Inhibition” value is reported as -25% and the Z score is reported as 2.28.
For `Cc1ccc(CN(C)c2ncccn2)o1`, the “% Inhibition” value was 2% and the Z score was -0.22.
For `CCOCC(=O)N1CCOc2cc(F)c(Br)cc21`, the “% Inhibition” value was -8% and the Z score was 1.11.
With `CCc1ccccc1Nc1nc(C)c(C(=O)NCc2cccnc2)s1` the “% Inhibition” value was 38% and the Z score was -4.96.
`O=C1NCCC[C@@]12CCN(S(=O)(=O)c1cc(F)c(F)cc1F)C2` was tested, and the “% Inhibition” value was 1% and the Z score was -0.11.
In the case of `CCCn1ccnc1CN(C)Cc1ccc(-n2cccn2)cc1`, the “% Inhibition” value is reported as -6% and the Z score is reported as 0.89.
In the case of `CC[C@H]1CN(c2ccc(-c3nc(-c4ccccc4C)no3)cn2)CCN1C`, the “% Inhibition” value is reported as 3% and the Z score is reported as -0.51.
`O=C(Nc1ccc(-c2cc[nH]n2)cc1)c1cnccn1` was tested, and the “% Inhibition” value was -14% and the Z score was 1.99.
In the case of `CC(C)(C)OC(=O)N[C@@H]1CCCCC[C@H]1NC(=O)c1cc(C2CC2)on1`, the “% Inhibition” value is reported as -2% and the Z score is reported as 0.18.
In the case of `COc1cccc(CN2CCC[C@@]3(CCN(C(=O)CC4CC4)C3)C2=O)c1OC`, the “% Inhibition” value is reported as -5% and the Z score is reported as 0.89.
In the case of `CCc1nc(-c2c3n(c(=O)n(CC(=O)Nc4ccc(C)cc4)c2=O)CCCC3)no1`, the “% Inhibition” value is reported as -5% and the Z score is reported as 0.6.
For `COCCn1ccnc1CN1CCC[C@H]1c1nc(-c2ccncc2)no1`, the “% Inhibition” value was 1% and the Z score was -0.21.
With `COCC[C@H](C)NC(=O)Nc1cccc(C(F)F)c1` the “% Inhibition” value was -8% and the Z score was 0.69.
For `Cn1ccnc1CN[C@H]1CCN(Cc2ccccc2)c2ccccc21`, the “% Inhibition” value was -7% and the Z score was 1.42.
